# Laboratory results reported in the supplement of paper PMC8007513.
# Counter-ions that a name gives are not always drawn. ± gives the standard error. The campaign covered roughly 1,300 compounds. About 75 (6%) showed an effect of 50% or more. The list shows a part of the results.
# Tested on: Trichoderma virens ATCC 9645
# Assay: growth yield (OD600) relative to untreated control; higher = less growth inhibition
# Details: compound concentration: 100 uM
# Method in brief: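 Trichoderma virens ATCC 9645 spores, from potato dextrose agar plates grown for 7 days, were brought to 15,000 spores ml^−1 in potato dextrose broth and dispensed as 100 μl aliquots into 96-well plates. Each aliquot received library compounds at 100 μM final, with or without a biocide at 200 ng ml^−1, before growth at 30 °C and OD600 readings on a BioTek EL800 at 40 h and 72 h. Growth is expressed relative to the control containing neither agent and represents means of duplicate screens.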
Compound,growth yield (40 h) [%],growth yield (72 h) [%]
Clc1ccc(CO/N=C(\Cn2ccnc2)c2ccc(Cl)cc2Cl)c(Cl)c1 [Oxiconazole Nitrate],1.59 ± 1.6,0.839 ± 0.84
O=C(O)COCCN1CCN(C(c2ccccc2)c2ccc(Cl)cc2)CC1 (configuration not stated) [Cetirizine dihydrochloride],102 ± 1.1,103.2 ± 1.4e-14
N[C@@H]1CONC1=O [D-cycloserine],107.7 ± 0.32,103 ± 1.1
COc1cc2nc(N(C)CCCNC(=O)C3CCCO3)nc(N)c2cc1OC (configuration not stated) [Alfuzosin hydrochloride],104.7 ± 0.79,105 ± 3.6
Clc1ccc(Cn2c(CN3CCCC3)nc3ccccc32)cc1 [Clemizole hydrochloride],100 ± 2.2,104 ± 2
CC(=O)Oc1ccccc1C(=O)O [Acetylsalicylic acid],93.4 ± 3.5,84.7 ± 2.3
N=C(N)NS(=O)(=O)c1ccc(N)cc1 [Sulfaguanidine],106 ± 4.3,104 ± 3
CC1=C(/C=C/C(C)=C/C=C/C(C)=C/C(=O)O)C(C)(C)CCC1 [Retinoic acid],98.2 ± 3.8,97.6 ± 2
NC(=O)c1cc[n+](CC2=C(C(=O)[O-])N3C(=O)[C@@H](NC(=O)[C@@H](c4ccccc4)S(=O)(=O)O)[C@H]3SC2)cc1 [Cefsulodin sodium salt],95 ± 4.8,99.3 ± 3.2
CCc1c(C)[nH]c2c1C(=O)C(CN1CCOCC1)CC2 (configuration not stated) [Molindone hydrochloride],98 ± 0.79,93.97 ± 0.84
CCC1(c2ccccc2)NC(=O)N(C)C1=O (configuration not stated) [Mephenytoin],110 ± 4.9,102 ± 4.5
Cc1ncc(CO)c(CO)c1O [Pyridoxine hydrochloride],101.5 ± 0.16,103.3 ± 0.52
C[C@]12CC[C@@H]3c4ccc(O)cc4CC[C@H]3[C@@H]1CC[C@@H]2O [Estradiol-17 beta],79.6 ± 14,81.4 ± 14
CCCN(CCC)S(=O)(=O)c1ccc(C(=O)O)cc1 [Probenecid],90.1 ± 4,89.9 ± 2.6
COc1ccc2[nH]c([S+]([O-])Cc3ncc(C)c(OC)c3C)nc2n1 (configuration not stated) [Tenatoprazole],98.8 ± 4.8,102 ± 1.6
CN(C)CCOC(c1ccccc1)c1ccccc1 [Diphenhydramine hydrochloride],99.9 ± 5.2,99.4 ± 3.1
CC(=O)[C@H]1CC[C@H]2[C@@H]3CCC4=CC(=O)CC[C@]4(C)[C@H]3CC[C@]12C [Progesterone],69.3,81.8
NC(Cc1cc(I)c(Oc2cc(I)c(O)c(I)c2)c(I)c1)C(=O)O (configuration not stated) [Thyroxine (L)],98 ± 2.1,94.5 ± 3.9
CN(C)CC/C=C1/c2ccccc2Sc2ccc(Cl)cc21 [Chlorprothixene hydrochloride],70.5 ± 6.3,90.8 ± 2.7
N=C(N)NC(=O)Cc1c(Cl)cccc1Cl [Guanfacine hydrochloride],97.1 ± 1.4,101.3 ± 0.63
CN1C(=O)CC(c2ccccc2)C1=O (configuration not stated) [Phensuximide],102 ± 5.1,97 ± 3.7

Compound,growth yield (40 h) [%],growth yield (72 h) [%]
Nc1ccn([C@@H]2O[C@H](CO)[C@@H](O)C2(F)F)c(=O)n1 [Gemcitabine],101 ± 1.6,100 ± 0.42
CN(C)CCN(Cc1ccccc1)c1ccccn1 [Tripelennamine hydrochloride],107 ± 1.4,100 ± 1.6
CC1CNc2c(cccc2S(=O)(=O)N[C@@H](CCCNC(=N)N)C(=O)N2CC[C@@H](C)C[C@@H]2C(=O)O)C1 (some centres not stated) [Argatroban],104 ± 4.9,101 ± 3.4
CC(=O)O[C@@]12CO[C@@H]1C[C@H](O)[C@@]1(C)C(=O)[C@H](O)C3=C(C)[C@@H](OC(=O)[C@H](O)[C@@H](NC(=O)OC(C)(C)C)c4ccccc4)C[C@@](O)([C@@H](OC(=O)c4ccccc4)[C@H]21)C3(C)C [Docetaxel],106 ± 1.4,101.3 ± 0.21
Clc1ccc(CSC(Cn2ccnc2)c2ccc(Cl)cc2Cl)cc1 (configuration not stated) [Sulconazole nitrate],2.22 ± 0.64,1.78 ± 0.52
Fc1ccc(C(c2ccc(F)cc2)N2CCN(C/C=C/c3ccccc3)CC2)cc1 [Flunarizine dihydrochloride],93.9 ± 4.3,114 ± 2.4
CCCCC(=O)O[C@H]1CC[C@H]2[C@@H]3CCc4cc(O)ccc4[C@H]3CC[C@]12C [Estradiol Valerate],101 ± 8.9,94.6 ± 3.8
N=C(N)c1ccc(OCCCCCOc2ccc(C(=N)N)cc2)cc1 [Pentamidine isethionate],1.91 ± 0.95,1.78 ± 0.52
Cn1c(NCCN(CCO)CCCc2ccc([N+](=O)[O-])cc2)cc(=O)n(C)c1=O [Nifekalant],97.69 ± 0.48,96.17 ± 0.73
OCCOCCN1CCN(C2=Nc3ccccc3Sc3ccccc32)CC1 [Quetiapine hemifumarate],108 ± 15,106 ± 12
CCC(=O)O[C@@H](O[P@](=O)(CCCCc1ccccc1)CC(=O)N1C[C@H](C2CCCCC2)C[C@H]1C(=O)O)C(C)C [Fosinopril],109.8 ± 0.48,103 ± 3.5
COc1cccc2c1C(=O)c1c(O)c3c(c(O)c1C2=O)C[C@@](O)(C(=O)CO)C[C@@H]3O[C@H]1C[C@H](N)[C@H](O)[C@H](C)O1 [Doxorubicin hydrochloride],81.6,92.3
CC1(C)S[C@@H]2[C@H](NC(=O)[C@H](N)c3ccc(O)cc3)C(=O)N2[C@H]1C(=O)O [Amoxicillin],105 ± 1.1,109 ± 2.1
CN[C@@H]1[C@H](O[C@H]2[C@H](O[C@H]3[C@H](O)[C@@H](O)[C@H](N=C(N)N)[C@@H](O)[C@@H]3N=C(N)N)O[C@@H](C)[C@]2(O)C=O)O[C@@H](CO)[C@H](O)[C@H]1O [Streptomycin sulfate],103 ± 1.3,104.35 ± 0.1
Nc1nc(Cl)nc2c1ncn2[C@H]1C[C@H](O)[C@@H](CO)O1 [Cladribine],106 ± 1.1,103 ± 1.3
CCCCCCC[N+](CC)(CC)CCCCc1ccc(Cl)cc1 [Clofilium tosylate],87.2 ± 1.4,101 ± 0.52
CNCCCC1c2ccccc2C=Cc2ccccc21 [Protriptyline hydrochloride],101 ± 1.6,104 ± 2
C[C@]12CCC(=O)C=C1CC[C@@H]1[C@@H]2[C@@H](O)C[C@@]2(C)[C@H]1CC[C@]2(O)C(=O)CO [Hydrocortisone base],99 ± 3.6,98.2 ± 2.5
Oc1ncnc2[nH]ncc12 [Allopurinol],102,98.3 ± 1.4
Cc1onc(-c2ccccc2)c1-c1ccc(S(N)(=O)=O)cc1 [Valdecoxib],107 ± 11,104 ± 8.3
